Results published in the supplement of paper PMC3334620.
The full ranking holds about 33,000 sequences; the median of “E-score (-0.5 to 0.5)” is about -0.021, and the highest 2% start at about 0.32. The list shows a part of the results.

Molecular target: T1, Zap1 (UniProt P47043)
T1 sequence: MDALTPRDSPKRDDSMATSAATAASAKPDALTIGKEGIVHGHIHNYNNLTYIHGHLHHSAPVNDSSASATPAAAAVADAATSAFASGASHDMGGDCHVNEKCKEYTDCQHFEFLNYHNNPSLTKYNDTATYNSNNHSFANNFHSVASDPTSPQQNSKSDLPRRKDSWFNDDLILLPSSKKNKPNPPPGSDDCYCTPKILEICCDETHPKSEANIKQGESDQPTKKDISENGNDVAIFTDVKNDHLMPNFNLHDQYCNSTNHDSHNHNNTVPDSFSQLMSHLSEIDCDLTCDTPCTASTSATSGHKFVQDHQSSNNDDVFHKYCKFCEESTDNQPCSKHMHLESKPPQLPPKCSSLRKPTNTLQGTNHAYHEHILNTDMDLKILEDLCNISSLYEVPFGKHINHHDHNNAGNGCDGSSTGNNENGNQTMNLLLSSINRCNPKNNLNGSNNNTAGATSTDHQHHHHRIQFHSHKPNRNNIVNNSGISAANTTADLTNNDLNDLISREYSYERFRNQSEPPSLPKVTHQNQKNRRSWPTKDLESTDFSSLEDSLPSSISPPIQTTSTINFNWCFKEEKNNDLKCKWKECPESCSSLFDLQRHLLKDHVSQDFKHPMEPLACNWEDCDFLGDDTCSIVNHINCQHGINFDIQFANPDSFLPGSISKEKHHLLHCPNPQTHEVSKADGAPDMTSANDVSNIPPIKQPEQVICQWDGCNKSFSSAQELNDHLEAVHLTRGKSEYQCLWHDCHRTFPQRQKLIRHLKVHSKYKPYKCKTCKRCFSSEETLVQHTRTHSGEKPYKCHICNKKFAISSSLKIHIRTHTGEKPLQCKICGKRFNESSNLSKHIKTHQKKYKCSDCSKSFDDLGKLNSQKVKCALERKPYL
Test: PBM E-score (8-mer binding enrichment) (E-score (-0.5 to 0.5)); higher = stronger / more preferred TF binding; most listed sequences are background and not binding sites
Settings: protein concentration: 200 nM; construct: GST-full length
Protocol: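 Universal 'all 10-mer' protein binding microarrays (Agilent AMADID 015681) probed with GST-tagged S. cerevisiae TFs (full-length or DBD) made by in vitro transcription/translation (PURExpress), about 100-200 nM. Bound TF was detected with fluorescent anti-GST. Each ungapped 8-mer (which stands for itself and its reverse complement) is scored by the PBM enrichment score (E-score), a modified Wilcoxon-Mann-Whitney statistic from -0.5 to +0.5, computed with the Universal PBM Analysis Suite. Scale: above 0.35 generally sequence-specific binding.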

First: CTCAAACA
Second: ACGACAAC
The “PBM E-score” value of the first is higher: 0.129 for the first, 0.04 for the second.

Compared with ATGTGAAC, AGCGCTTA is lower in “PBM E-score” value: -0.0742 for the first, -0.0924 for the second.

First: TAAATTAA
Second: ATTGCACC
The “PBM E-score” value of the first is higher: 0.177 for the first, 0.0965 for the second.

Going from CCTTGATA to ATATTAAT, the “PBM E-score” value falls from 0.199 to 0.0943.

Compared with GGCGCTTA, ATCTAGCA is higher in “PBM E-score” value: -0.289 for the first, -0.0478 for the second.

First: CACCATTA
Second: ACTGCTTA
The “PBM E-score” value of the first is higher: 0.037 for the first, -0.14 for the second.

Going from CATCTCGG to ATATGACG, the “PBM E-score” value falls from 0.0732 to -0.122.

Going from ACCACAGA to AAATCGTC, the “PBM E-score” value falls from 0.173 to -0.148.

Going from AGAGCCAG to AACCACCA, the “PBM E-score” value rises from -0.335 to 0.273.

Compared with AACGCTTC, CTAAAGAA is higher in “PBM E-score” value: -0.128 for the first, 0.115 for the second.

Going from ACCGCGGG to AGCCGCAT, the “PBM E-score” value falls from 0.291 to -0.179.

Going from ACATACTA to CTCTAGAC, the “PBM E-score” value falls from 0.0795 to -0.212.

Compared with ATGAAAAG, CAGAAATA is higher in “PBM E-score” value: -0.0902 for the first, 0.144 for the second.

First: AACGGCAC
Second: CTCCGAAG
The “PBM E-score” value of the first is lower: -0.184 for the first, -0.0454 for the second.

Compared with GAGCTCGA, ATGCCCTC is lower in “PBM E-score” value: -0.0262 for the first, -0.214 for the second.

Compared with CTACAGAA, CCTTTGTC is lower in “PBM E-score” value: 0.11 for the first, 0.0506 for the second.

First: ATCATCGC
Second: CCCTTGTA
The “PBM E-score” value of the first is lower: -0.0946 for the first, -0.0158 for the second.

Going from GTGATTTA to TAGGCACA, the “PBM E-score” value falls from 0.193 to -0.0742.

First: CAGAGATC
Second: TCCGGGAA
The “PBM E-score” value of the first is lower: -0.134 for the first, 0.0362 for the second.

Going from AATTTTTG to AATCGTGG, the “PBM E-score” value falls from 0.178 to 0.0842.

Compared with CCCTCACG, AAAAGGAG is lower in “PBM E-score” value: 0.13 for the first, -0.254 for the second.

First: GGGTTGAC
Second: GCATGCCC
The “PBM E-score” value of the first is higher: 0.131 for the first, -0.119 for the second.

Going from ATCCAGTA to AGACGACG, the “PBM E-score” value falls from -0.0817 to -0.226.

Compared with TGAGGACA, AAGCACGG is lower in “PBM E-score” value: 0.0682 for the first, -0.11 for the second.

Compared with AAGTCAAA, GCTCGCAC is lower in “PBM E-score” value: 0.173 for the first, -0.205 for the second.

Going from CGGCCGGA to TCTAACCA, the “PBM E-score” value rises from 0.03 to 0.231.

First: CCTACAGC
Second: AAACATTA
The “PBM E-score” value of the first is lower: -0.105 for the first, -0.0997 for the second.

Compared with CCCACAGG, CCGCTTAG is lower in “PBM E-score” value: 0.0454 for the first, -0.184 for the second.

Compared with TACGCATA, TATCGAAA is higher in “PBM E-score” value: -0.0829 for the first, 0.242 for the second.

Going from CTTGTCGC to ACTGAGAT, the “PBM E-score” value falls from -0.063 to -0.201.

First: AACTAAAG
Second: AGGGAACA
The “PBM E-score” value of the first is higher: 0.212 for the first, -0.152 for the second.

Going from AAATATGG to CTTGGGCC, the “PBM E-score” value falls from 0.0312 to -0.0386.

First: ATCAAGGG
Second: GTATCAAC
The “PBM E-score” value of the first is higher: 0.161 for the first, 0.0391 for the second.

Compared with CAGGATTA, CGAGCACC is higher in “PBM E-score” value: -0.0924 for the first, -0.0114 for the second.

Compared with ACGACGAT, CAGAGATG is lower in “PBM E-score” value: 0.0497 for the first, -0.0673 for the second.

Going from CATCTTCA to CCTGACTC, the “PBM E-score” value rises from -0.148 to 0.0283.

Compared with GCCCATCA, AGACCTTC is higher in “PBM E-score” value: -0.0776 for the first, 0.184 for the second.

First: AACTGAAA
Second: CCCAAGAC
The “PBM E-score” value of the first is higher: 0.139 for the first, -0.045 for the second.

Going from CTCTCGCA to GCGCCCGC, the “PBM E-score” value falls from -0.105 to -0.234.

Compared with GCGATCCC, TCAATTGA is higher in “PBM E-score” value: -0.0725 for the first, 0.00911 for the second.

Going from GCAAGAAC to CATCGGTC, the “PBM E-score” value rises from 0.0646 to 0.0918.

First: CCAGCGCG
Second: TATACGAA
The “PBM E-score” value of the first is lower: 0.00858 for the first, 0.0189 for the second.

Going from GGCCAACC to ACACTCCT, the “PBM E-score” value falls from -0.0222 to -0.0481.

First: AATGATAA
Second: AATTCCAC
The “PBM E-score” value of the first is higher: 0.2 for the first, 0.171 for the second.

Going from ATGGGGCG to TCTGGCCA, the “PBM E-score” value rises from -0.129 to -0.0183.

First: ATCGACGC
Second: AGAACTGA
The “PBM E-score” value of the first is lower: -0.0892 for the first, 0.0589 for the second.

Going from CCTTAGCA to GCGATACC, the “PBM E-score” value falls from 0.162 to 0.158.

Going from GGCCAGAC to GCGGTTGA, the “PBM E-score” value rises from -0.0773 to 0.149.

First: GGATTAAA
Second: ATTTAGTA
The “PBM E-score” value of the first is lower: 0.135 for the first, 0.167 for the second.

First: AAACGTAT
Second: GCGCAAAA
The “PBM E-score” value of the first is lower: -0.00708 for the first, 0.0381 for the second.

Going from AAATGTGG to ACTGGCAA, the “PBM E-score” value rises from -0.0928 to 0.0202.

Going from ACCGTAAA to AAGTTCAT, the “PBM E-score” value falls from 0.293 to 0.0784.

Going from CACGTTGC to AGGGAGTA, the “PBM E-score” value rises from -0.298 to -0.0625.

Going from GGACCCCC to GAGCGCGC, the “PBM E-score” value rises from -0.177 to -0.0746.

Compared with AGGTCGAC, AGGCGGCC is lower in “PBM E-score” value: 0.135 for the first, 0.0585 for the second.

First: AGACCACC
Second: ACTTGCAC
The “PBM E-score” value of the first is higher: 0.0702 for the first, -0.141 for the second.

Going from AGCGCGGA to CTTTGCCC, the “PBM E-score” value falls from -0.00104 to -0.0577.

Going from ACGCACTA to AGACCCCC, the “PBM E-score” value falls from -0.161 to -0.233.

First: ATCTATTA
Second: CCCCTGAA
The “PBM E-score” value of the first is lower: 0.0199 for the first, 0.127 for the second.

Compared with ATGTATGG, CATCCAAG is lower in “PBM E-score” value: -0.0638 for the first, -0.073 for the second.

First: GCTAGTTA
Second: AAGGGTAG
The “PBM E-score” value of the first is lower: -0.0737 for the first, 0.375 for the second.

Going from AGCACGAT to CCTTCAAG, the “PBM E-score” value rises from -0.00084 to 0.292.

Compared with CAACTCAC, GCAGAATA is higher in “PBM E-score” value: -0.00774 for the first, 0.122 for the second.

Going from ACGAGCCC to ATACCGAA, the “PBM E-score” value rises from -0.0869 to 0.0855.

Compared with AGGATATG, ATTCTATG is higher in “PBM E-score” value: 0.0277 for the first, 0.0807 for the second.

Going from TGAACAAA to CAGTCTGG, the “PBM E-score” value falls from 0.161 to -0.16.

Going from ATACGGGC to ATGTTCAA, the “PBM E-score” value rises from -0.134 to -0.0107.

First: CGTGGTTA
Second: CGAAAGCC
The “PBM E-score” value of the first is higher: 0.348 for the first, -0.12 for the second.

Compared with CCGCCTTA, CCGCACGG is higher in “PBM E-score” value: -0.127 for the first, -0.114 for the second.

Compared with ACAATGCA, CAGGTTGG is lower in “PBM E-score” value: 0.0982 for the first, 0.0671 for the second.

First: AGTACTAA
Second: AAGTTCCT
The “PBM E-score” value of the first is higher: 0.134 for the first, 0.0163 for the second.

Compared with AGTCCGTC, AAGACACG is lower in “PBM E-score” value: -0.034 for the first, -0.18 for the second.

Going from AGATTCCA to ACGATGCA, the “PBM E-score” value rises from 0.0253 to 0.026.

First: ATAGTAGA
Second: ACTGTTGA
The “PBM E-score” value of the first is higher: 0.118 for the first, -0.123 for the second.

First: AGTATCTG
Second: TATATGAA
The “PBM E-score” value of the first is lower: -0.114 for the first, 0.181 for the second.

Going from GAGGTATA to AAGCCGAC, the “PBM E-score” value falls from 0.233 to -0.159.

First: AGGCCCAC
Second: AACTTGGA
The “PBM E-score” value of the first is lower: -0.14 for the first, 0.0986 for the second.

First: CCACCTCC
Second: ACTTCCGA
The “PBM E-score” value of the first is lower: -0.104 for the first, 0.0305 for the second.

Going from GAATACGC to ACCGTCAA, the “PBM E-score” value rises from -0.176 to 0.121.

First: CGTTCAGC
Second: AACCGCGA
The “PBM E-score” value of the first is lower: -0.0955 for the first, 0.367 for the second.

First: AGGGCGAC
Second: GGGATGAC
The “PBM E-score” value of the first is lower: -0.0254 for the first, 0.0333 for the second.

Compared with GAACATAA, CGTCATAG is lower in “PBM E-score” value: 0.185 for the first, 0.082 for the second.

First: TCACCGCA
Second: CCAGCTGG
The “PBM E-score” value of the first is higher: 0.0198 for the first, -0.125 for the second.

First: ATGGCCGA
Second: GGCGGCAA
The “PBM E-score” value of the first is higher: 0.123 for the first, -0.00175 for the second.

First: GCCTAAAC
Second: CGGCCTGC
The “PBM E-score” value of the first is higher: -0.0306 for the first, -0.215 for the second.

Compared with TCGGGTAA, AGCGCGTG is lower in “PBM E-score” value: 0.24 for the first, 0.0374 for the second.
